Reference: PubChem BioAssay AID1768 (National Center for Advancing Translational Sciences (NCATS), 2009)
The whole screen tested about 270,000 compounds, of which about 620 (0.23%) were called active. The inconclusive results got no clear call from the source; some entries with a clear call stand among them for comparison. Calls follow the shape of the dose curve; as a rule, active = well fitted inhibition curve with a large enough effect in the polarisation, with a control signal flat (not every such curve was filed as active); inconclusive = small, poorly fitted or top-dose-only effect, or effect the other way, or a change in a side signal; inactive = no such curve, though single readings can be large or run the other way; the % refers to the polarisation. A potency beside an inconclusive call is a rough fit, not a confirmed value. A note “side channel” means that the fit belongs to a control or component signal, not to the main read-out.

molecular target: Menin (Homo sapiens) (UniProt O00255); assay: qHTS Assay for Inhibitors Targeting the Menin-MLL Interaction in MLL Related Leukemias: Competition With Texas Red Labeled MLL-derived Mutant Peptide; settings: fluorescence polarization; series mostly up to 61.6 µM
Potency is read from the fitted curve at half-maximal effect; tags tell the direction and shape of the fitted curve or compound fluorescence and quenching.

Sequence of UniProt O00255 (O00255 whole entry, looked up): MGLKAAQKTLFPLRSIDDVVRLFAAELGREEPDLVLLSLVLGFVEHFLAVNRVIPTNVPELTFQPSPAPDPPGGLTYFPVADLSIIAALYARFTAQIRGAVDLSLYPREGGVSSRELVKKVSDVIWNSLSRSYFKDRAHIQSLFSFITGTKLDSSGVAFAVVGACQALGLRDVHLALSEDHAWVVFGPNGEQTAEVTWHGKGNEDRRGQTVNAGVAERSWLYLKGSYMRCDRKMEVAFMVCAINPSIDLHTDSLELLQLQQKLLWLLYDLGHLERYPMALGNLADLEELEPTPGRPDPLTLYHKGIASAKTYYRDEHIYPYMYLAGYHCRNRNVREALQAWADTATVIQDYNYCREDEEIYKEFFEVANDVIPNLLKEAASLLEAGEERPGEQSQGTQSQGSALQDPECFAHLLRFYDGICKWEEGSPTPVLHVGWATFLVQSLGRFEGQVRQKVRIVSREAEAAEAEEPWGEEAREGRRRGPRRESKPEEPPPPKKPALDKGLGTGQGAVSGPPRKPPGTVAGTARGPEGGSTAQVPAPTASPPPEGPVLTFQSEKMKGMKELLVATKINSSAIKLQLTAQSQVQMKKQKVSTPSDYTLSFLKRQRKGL

SMILES	Potency
ClC(Cl)Cl	inactive
CC(C)CCOc1ccc(C(=O)N2CCN(c3ncccn3)CC2)cc1	inconclusive: 39.8 µM [inhibitor, single point]
COc1ccccc1NC(=O)C1=C(C)NC(SCC(=O)c2ccccc2)=C(C#N)C1c1ccco1 (stereo not drawn)	inconclusive: 31.6 µM [quencher, side channel, single point]
CN/C=C1\C(=O)C(C)(C)Oc2ccc3ccc(=O)oc3c21	inactive
O=C1/C(=C/c2ccc(F)cc2)SC(=S)N1NS(=O)(=O)c1ccccc1	inconclusive: 35.5 µM [quencher, side channel, single point]
CCCCCCC(c1c(C)n(C)n(-c2ccccc2)c1=O)c1c(C)n(C)n(-c2ccccc2)c1=O	inconclusive: 2.24 µM [inhibitor, full curve, poor fit]
N=c1n(CCN2CCCCC2)c2ccccc2n1CC(=O)c1cccc([N+](=O)[O-])c1	inconclusive: 15.8 µM [inhibitor, partial curve]
Cc1cc(SCC(=O)OCC(=O)N2CCN(C(=O)c3ccco3)CC2)c(C)cc1Br	inactive
COc1ccc(CNC(=O)CN(C(=O)c2snc(C(N)=O)c2N)c2ccc(OC)c(OC)c2)cc1	inconclusive: 8.91 µM [inhibitor, single point]
CCOC(=O)CNC(=O)C1CCCc2c1[nH]c1ccc(Cl)cc21 (stereo not drawn)	inconclusive: 28.2 µM [quencher, side channel, partial curve]
Cc1ccc(C(=O)C(C)N2C(=O)NC(C)(c3ccccc3)C2=O)cc1 (stereo not drawn)	inconclusive: 39.8 µM [inhibitor, single point]
Cc1cc(S(=O)(=O)Nc2c(C(=O)O)[nH]c3ccccc23)ccc1F	inconclusive: 12.6 µM [quencher, side channel, partial curve]
COc1ccc2nc(C(F)(F)C(F)(F)F)c(C#N)c(N)c2c1	inconclusive: 12.6 µM [quencher, side channel, partial curve]
Cc1cccc(NC(=O)Cc2nnc(NC(=O)Nc3ccccc3F)s2)c1	inconclusive: 25.1 µM [inhibitor, single point]
Nc1c2c(nc3c1CCCC3)CCCC2 (tested in a mixture with another compound)	inconclusive: 39.8 µM [quencher, side channel, single point]
Oc1cccc(/C=N/Nc2ccc(Cl)nn2)c1	inactive
O=C(NCCO)c1ccccc1O	inactive
O=S(=O)(c1cccc2nonc12)N1CCN(c2cccc(Cl)c2)CC1	inconclusive: 11.2 µM [quencher, side channel, partial curve]
